{
  "source": "PubChem BioAssay AID1347417",
  "about": "(National Center for Advancing Translational Sciences (NCATS), 2020)",
  "note": "About 5,300 (4.4%) of roughly 120,000 compounds were called active. This list was built around the results that the source calls inconclusive (neither active nor inactive); the mix of calls is not that of the screen. Calls come from the whole dose curve; as a rule, active = well fitted inhibition curve with a large enough effect; inconclusive = small, poorly fitted or top-dose-only effect; inactive = no such curve, though single readings can be large or run the other way. A potency beside an inconclusive call is a rough fit, not a confirmed value. Potency is the fitted concentration of half-maximal effect; tags give direction and shape of the fitted curve.",
  "data": [
    {"test": "qHTS Primary assay for Inhibitors of Plasmodium falciparum Dd2 growth in vitro; note: nearly all actives have a fitted effect of over 65% in size;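 for activity, negative = inhibition: plate controls were DMSO vehicle for no effect and reference drug for full effect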", "settings": "P. falciparum Dd2 growth, SYBR Green, 72 h; activity, negative = inhibition: at 28.9 µM (top of the series) unless noted; series mostly up to 28.9 µM", "outline": "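Readout: SYBR Green fluorescence, 485 nm excitation, 535 nm emission, after ~16 h lysis at 37C. Before that, Dd2-infected red cells (2.5% hematocrit) grew 72 h with compound, 29 uM top final concentration.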", "values": [
      {"smiles": "Cc1ccccc1Cn1c(CN2CCC(C(=O)NCCc3ccccc3)CC2)cc2ccccc21", "Potency": "inconclusive: 17.8 µM [inhibitor, single point]"},
      {"smiles": "Cc1ccc2sc(NC(=O)c3ccc4c(c3)OCCO4)nc2c1C", "activity, negative = inhibition": "inactive: 24.1%"},
      {"smiles": "CCn1ncc(CN2CCCCCNC(=O)[C@@H]3CCC[C@@H]32)c1C", "Potency": "inconclusive: 17.8 µM [inhibitor, single point]"},
      {"smiles": "O=C(NCCCN1CCN(c2ccc(F)cc2)CC1)c1ccc2nc(Cc3ccccc3)oc2c1", "Potency": "inconclusive: 17.8 µM [inhibitor, single point]"},
      {"smiles": "Cn1cc(-c2ccncc2)cc1C(=O)N1CCN(c2ccc(F)cc2)CC1", "Potency": "inconclusive: 17.8 µM [inhibitor, single point]"},
      {"smiles": "O=C(Nc1cc(Cl)cc(Cl)c1)c1ccn2nccc2c1", "activity, negative = inhibition": "inactive: 4.77% [at 44.1 µM]"},
      {"smiles": "Cc1cccnc1CNC[C@H]1O[C@@H]2C[C@@H](CC(=O)NCc3nccn3C)O[C@@H]2[C@@H]1O", "activity, negative = inhibition": "inactive: 35.9% [at 44.1 µM]"},
      {"smiles": "CC(c1ccc(F)cc1)N1Cc2cc(NC(=O)Cc3cccs3)ccc2OCC1=O", "note": "(centres undefined)", "outcome": "inactive"},
      {"smiles": "Cc1cnc(C(=O)N[C@@H]2CN(C3CCOCC3)C[C@H]2CN(C)C)cn1", "activity, negative = inhibition": "inactive: 17.9%"},
      {"smiles": "CC(C)c1ccc(NC(=O)N[C@H]2CO[C@H]3[C@@H]2OC[C@H]3OCc2ccccc2)cc1", "Potency": "inconclusive: 8.91 µM [inhibitor, single point]"},
      {"smiles": "Cc1cc(N2CCC(NCc3nc[nH]c3C)CC2)nc(-c2ccccc2O)n1", "Potency": "active: 10 µM"},
      {"smiles": "O=C(NCCc1noc(-c2ccncc2)n1)c1ccccc1F", "activity, negative = inhibition": "inactive: -2.84%"},
      {"smiles": "COc1ccc([C@H]2CN(C(=O)c3nc(N)nc4c3CCCC4)C[C@@H]2N)cc1", "activity, negative = inhibition": "inactive: -7.19%"},
      {"smiles": "CC(O)c1cc2n(n1)CCN(C(=O)c1nc3ccccc3n(C)c1=O)C2", "note": "(centres undefined)", "activity, negative = inhibition": "inactive: -8.82%"},
      {"smiles": "Cc1ccc(NC(=O)c2sc3nc4c(cc3c2N)CN(Cc2ccccc2)CC4)cc1", "Potency": "inconclusive: 17.8 µM [inhibitor, single point]"},
      {"smiles": "CNc1nccc(N2CCC(CC(=O)NCCC(C)C)CC2)n1", "Potency": "inconclusive: 17.8 µM [inhibitor, single point]"},
      {"smiles": "CC[C@H]1CN(C(=O)Nc2ccccc2)CC[C@H]1CC(=O)Nc1ccccc1", "outcome": "inactive [at 44.1 µM]"},
      {"smiles": "CCc1cc(C(=O)Nc2cnn(Cc3ccccc3C)c2)no1", "activity, negative = inhibition": "inactive: 0.194%"},
      {"smiles": "Cc1cnc(C2CC2)n1C1CCCN(C(=O)c2ccoc2)C1", "note": "(centres undefined)", "Potency": "inconclusive: 11.2 µM [inhibitor, partial curve, poor fit]"},
      {"smiles": "CCCNC(=O)C(NC(=O)c1ccccc1C)C1CCN(C(=O)C2CCCC2)CC1", "note": "(centres undefined)", "activity, negative = inhibition": "inactive: -16.8%"},
      {"smiles": "Cn1c(C(=O)NC(C)(C)C)cc2c1CCN(Cc1cccc(F)c1)C2", "Potency": "inconclusive: 2.82 µM [inhibitor, full curve, poor fit]"},
      {"smiles": "COc1cc(CN2C[C@@H](F)[C@@H](OCc3nc4ccc(F)cc4[nH]3)C2)cc(OC)c1OC", "Potency": "inconclusive: 25.1 µM [inhibitor, single point]"},
      {"smiles": "COCCNC(=O)CCc1c(C)nn(-c2ccccc2)c1Oc1ccc(F)cc1F", "outcome": "inactive"},
      {"smiles": "CN(Cc1ccccc1)C(=O)c1cn2ccnc(-c3ccccc3)c2n1", "Potency": "inconclusive: 17.8 µM [inhibitor, single point]"},
      {"smiles": "Cc1ccc([S+](=O)([O-])N2CCC3(CC2)C(=O)NCN3Cc2ccc(Cl)cc2)cc1", "activity, negative = inhibition": "inactive: -11.4%"},
      {"smiles": "CC(=O)Nc1ccc2c(c1)S(=O)(=O)N=C(CC(C)C)N2c1ccccc1", "Potency": "inconclusive: 7.94 µM [inhibitor, single point]"},
      {"smiles": "Fc1ccc(-c2noc3ncnc(NCCCN4CCN(c5ccccc5)CC4)c23)cc1", "activity, negative = inhibition": "inactive: -22.6%"},
      {"smiles": "O=c1c2c(n(CCOc3ccccc3)n1-c1ccccc1)CN(Cc1ccc3c(c1)CCO3)CC2", "Potency": "inconclusive: 11.2 µM [inhibitor, single point]"},
      {"smiles": "COC(=O)c1ccc(OCC2c3cc(OC)c(OC)cc3CCN2C(=O)c2ccc(F)cc2)cc1", "note": "(centres undefined)", "Potency": "active: 11.2 µM"},
      {"smiles": "CCc1ccc(CN2CCCC(CO)(Cc3ccc(F)cc3F)C2)cc1", "note": "(centres undefined)", "activity, negative = inhibition": "inactive: -2.43%"},
      {"smiles": "CNC(=O)[C@@H](C1CC1)N1CCC[C@H]1C(=O)NCc1ccccc1", "Potency": "inconclusive: 3.98 µM [inhibitor, single point]"},
      {"smiles": "Cc1cccn2c(=O)c3cc(C(=O)NC(C)c4ccccc4)c(=N)n(CCCO)c3nc12", "note": "(centres undefined)", "Potency": "inconclusive: 3.98 µM [inhibitor, partial curve, poor fit]"},
      {"smiles": "CCOc1ccc(C2CC(=O)Nc3c2c(=O)nc(SCc2ccccc2C)n3C)cc1OC", "note": "(centres undefined)", "activity, negative = inhibition": "inconclusive: -42.9% [inhibitor] [at 0.594 µM]"},
      {"smiles": "CCn1cc(C(=O)OCC(=O)Nc2cccc(C(C)=O)c2)c(=O)c2ccc(C)nc21", "activity, negative = inhibition": "inactive: 19%"},
      {"smiles": "Cc1oc2ccn(Cc3ccc(F)cc3)c(=O)c2c1C(=O)N1CCN(c2ccccn2)CC1", "activity, negative = inhibition": "inactive: -4.96%"},
      {"smiles": "COCCCNc1oc(-c2ccc(COc3ccc(Cl)cc3)o2)nc1C#N", "Potency": "inconclusive: 17.8 µM [inhibitor, single point]"},
      {"smiles": "COc1ccc(CNC(=O)N2[C@H]3CC[C@@H]2c2cnc(-c4ccccc4)nc2C3)cc1", "Potency": "active: 11.2 µM"},
      {"smiles": "O=C(N1CCC(n2cc(-c3nc(C4CC4)no3)nn2)C1)C1(c2ccccc2)CC1", "note": "(centres undefined)", "activity, negative = inhibition": "inactive: -1.56%"},
      {"smiles": "CC(=O)N1CCc2c(sc3nc(SCC(C)C)n(-c4ccc(F)c(Cl)c4)c(=O)c23)C1", "Potency": "inconclusive: 17.8 µM [inhibitor, single point]"},
      {"smiles": "CCCSc1ncc(Cl)c(C(=O)Nc2c(C(=O)Nc3ccc(C)cc3)oc3ccccc23)n1", "Potency": "inconclusive: 1.12 µM [inhibitor, single point]"},
      {"smiles": "COC(=O)c1ccc(C2C(C(=O)Nc3ccccc3)=C(C)Nc3nc4ccccc4n32)cc1", "note": "(centres undefined)", "Potency": "inconclusive: 17.8 µM [inhibitor, single point]"},
      {"smiles": "Cc1cc(C(=O)N2C[C@@H](Oc3ccccc3)C[C@H]2C(=O)N2CCCC2)nn1C", "Potency": "inconclusive: 17.8 µM [inhibitor, single point]"},
      {"smiles": "Cc1nccn1CC(=O)N1C[C@@H](COCC2CC2)[C@H](c2ccncc2)C1", "Potency": "inconclusive: 0.158 µM [inhibitor, full curve, poor fit]"},
      {"smiles": "O=C(Nc1ccc([C@@H](O)[C@H]2COCC(=O)N2Cc2ccccc2F)cc1)c1ccccc1", "Potency": "inconclusive: 0.562 µM [inhibitor, full curve, poor fit]"},
      {"smiles": "CC(C)c1ccc(OC(=O)c2cc(-c3ccccc3)on2)cc1", "activity, negative = inhibition": "inactive: 9.51%"},
      {"smiles": "Cc1ccc(NC(=O)Nc2nnc(N(C)Cc3ccccc3)s2)c(C)c1", "activity, negative = inhibition": "inactive: -23.3%"},
      {"smiles": "Cc1ccc(NC(=O)CN2C(=O)CCSc3ccc(S(=O)(=O)N4CCCC4)cc32)cc1C", "activity, negative = inhibition": "inactive: 12.7%"},
      {"smiles": "CC1=C(c2ccc(C)cc2)S(=O)(=O)NC1=NCCCN1CCN(c2ccc(F)cc2)CC1", "Potency": "inconclusive: 17.8 µM [inhibitor, single point]"},
      {"smiles": "CC(=O)Nc1ccc([C@@H](O)[C@H]2COCC(=O)N2CCCc2ccccc2)cc1", "outcome": "inactive [at 44.1 µM]"},
      {"smiles": "Cn1cc(CN2CCOC[C@H]2c2ncc(-c3ccc(F)cc3F)[nH]2)c2ccccc21", "Potency": "inconclusive: 3.55 µM [inhibitor, single point]"},
      {"smiles": "O=C(Cn1c2c(c(=O)n1Cc1ccccc1)CCN(Cc1ccccc1)C2)N1CCC(c2ccccc2)CC1", "Potency": "inconclusive: 8.91 µM [inhibitor, single point]"},
      {"smiles": "Cc1cc(C)cc(C(=O)Nc2ccc3c(N4CCCC4)ncnc3c2)c1", "Potency": "active: 0.708 µM"},
      {"smiles": "CN1c2ncccc2CN(Cc2ccccc2O)CC[C@H]1CO", "Potency": "inconclusive: 4.47 µM [inhibitor, full curve, poor fit]"},
      {"smiles": "O=C(NCCc1ccccc1Cl)c1ccc2c(c1)nc1n2CCCCC1", "outcome": "inactive"},
      {"smiles": "O=C1NCCCCCN(Cc2cccnc2)[C@@H]2CN(C(=O)C3CCCCC3)CC[C@@H]12", "activity, negative = inhibition": "inactive: 6.03%"},
      {"smiles": "COCC(=O)N(C1CCOCC1)C1CCN(S(=O)(=O)c2c(C)noc2C)CC1", "activity, negative = inhibition": "inactive: -2.34%"},
      {"smiles": "COc1ccc(-c2noc([C@@H]3CCCN3Cc3ccc(S(C)(=O)=O)cc3)n2)cn1", "Potency": "inconclusive: 1.12 µM [inhibitor, partial curve, poor fit]"},
      {"smiles": "Cn1nc2n(c1=O)CCN(C1CCOCC1)CC2", "activity, negative = inhibition": "inactive: -4.15%"},
      {"smiles": "Cc1ccc(C)c(Cn2c(C3CC(=O)N(c4ccccc4C)C3)nc3ccccc32)c1", "note": "(centres undefined)", "Potency": "inconclusive: 12.6 µM [inhibitor, single point]"},
      {"smiles": "COCC1CN(C)CC12CCN(C(=O)CCc1ccccc1OC)CC2", "note": "(centres undefined)", "Potency": "inconclusive: 7.94 µM [inhibitor, partial curve, poor fit]"},
      {"smiles": "O=C(Cc1ccccc1)N1CCCC2(CC(c3ccccc3)=NO2)C1", "note": "(centres undefined)", "activity, negative = inhibition": "inconclusive: -32.8% [inhibitor]"},
      {"smiles": "COc1ccc(-c2ccc3ncc(Nc4ccc(CN5CCN(C)CC5)cc4)n3n2)cn1", "Potency": "inconclusive: 2.24 µM [inhibitor, partial curve, poor fit]"},
      {"smiles": "Cc1nnc(N2CCCC(C(=O)NCCc3ccc(Cl)cc3)C2)c2nn(-c3ccccc3)c(C)c12", "note": "(centres undefined)", "Potency": "inconclusive: 10 µM [inhibitor, single point]"},
      {"smiles": "Clc1cccc(-c2cnc([C@@H]3COCCN3C3CCCCC3)[nH]2)c1", "Potency": "active: 11.2 µM"},
      {"smiles": "Cc1noc([C@@H]2CN(C(=O)c3cccc(C(F)(F)F)c3)C[C@H]2C(N)=O)n1", "Potency": "inconclusive: 0.0631 µM [inhibitor, full curve, poor fit]"},
      {"smiles": "COCCOC1CCOC2(CCN(C(=O)c3ccncc3)CC2)C1", "note": "(centres undefined)", "activity, negative = inhibition": "inactive: 67.1%"},
      {"smiles": "COc1cccc(C(=O)Nc2cccc(-c3cn4c(C)csc4n3)c2)c1OC", "Potency": "inconclusive: 0.1 µM [inhibitor, full curve, poor fit]"},
      {"smiles": "COc1ccc(-c2cc([C@H]3CN4CC[C@H]3C[C@@H]4COC(=O)Nc3ccc(C(C)C)cc3)n(C)n2)cc1OC", "Potency": "inconclusive: 2.51 µM [inhibitor, full curve, poor fit]"},
      {"smiles": "O=C(Nc1cccc(Cl)c1)c1cc2c(=O)[nH]c3ccccc3c2s1", "Potency": "inconclusive: 10 µM [inhibitor, single point]"}
    ]}
  ]
}
